In PubChem BioAssay AID1346428 (National Center for Advancing Translational Sciences (NCATS), 2018):
Several values for one entry are separate records, joined by “and”; a condition that tells them apart may be missing. Identical values can stand only once. Out of some 48,000 compounds screened, about 1,200 (2.5%) were called active. Roughly 2% stayed inconclusive and do not appear here.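 Rule for the calls: active = activation of at least 60% and not above a set upper limit (about 1 call in 100 departs from these limits); inconclusive = activation of 40% to 60%, or above that upper limit; inactive = activation under 40%.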 The list shows a part of the results.

target: Probable G-protein coupled receptor 32 (Homo sapiens) (UniProt O75388); assay: qHTS for Agonists of Human Resolvin D1 Receptor DRV1; conditions: CHO-K1 GPR32 beta-arrestin PathHunter luminescence, 90 min; at 76.9 µM; active compounds read high; zero percent set by DMSO-only wells; note: 0% is about no effect
Summary of the method: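 Beta-arrestin recruitment read-out: luminescence from complemented beta-Gal in CHO-K1 GPR32 PathHunter cells, measured 1 h after detection reagent at ambient temperature following 90 min compound exposure at 37 °C; DMSO served as basal (EC0) control.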

Sequence of UniProt O75388 (O75388 whole entry, looked up): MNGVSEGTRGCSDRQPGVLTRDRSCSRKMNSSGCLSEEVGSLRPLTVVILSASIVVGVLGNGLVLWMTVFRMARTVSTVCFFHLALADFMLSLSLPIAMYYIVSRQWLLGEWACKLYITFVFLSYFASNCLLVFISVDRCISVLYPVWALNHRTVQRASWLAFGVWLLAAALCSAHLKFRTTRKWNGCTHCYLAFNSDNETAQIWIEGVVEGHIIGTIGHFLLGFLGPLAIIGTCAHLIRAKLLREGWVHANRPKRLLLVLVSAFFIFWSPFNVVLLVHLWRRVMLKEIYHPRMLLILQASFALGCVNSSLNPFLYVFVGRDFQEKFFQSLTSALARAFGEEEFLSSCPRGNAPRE

| SMILES | activation |
| --- | --- |
| COc1ccc(OCC(=O)NC2CC(=O)N(c3cccc(OC)c3)C2)cc1 (centres undefined) | inactive: -8.93% |
| CCCN(CCC)CC(O)Cn1cc(/C=C/C(=O)c2ccc(C)cc2)c2ccccc21 (centres undefined) | inactive: -11.4% |
| CC(C(=O)NCc1ccc(Cl)cc1)n1ccc2cc(S(=O)(=O)N3CCCCCC3)ccc21 (centres undefined) | inactive: -7.69% |
| COc1ccc(NC(=O)c2cc(S(=O)(=O)N3CCCCCC3)cn2C)c(OC)c1 | inactive: 27.7% |
| COc1ccc(NC(=O)CN2CCN(Cc3ccc(F)cc3)S2(=O)=O)cc1Cl | inactive: 46.9% |
| CCN(CC)CCOc1ccccc1C(=O)CCc1ccccc1 | active: 107% |
| COc1ccc(OC)c(CNC(=O)c2c3c(nc4ccccc24)C(=O)N(C2CCCCC2)C3)c1 | inactive: 1.84% |
| O=C(NCc1ccccc1Cl)C1CCCN(S(=O)(=O)c2cccc3nsnc23)C1 (centres undefined) | inactive: -2.83% |
| CCOC(=O)c1c(C)[nH]c(C)c1S(=O)(=O)N1CCC(C(=O)N2CCN(c3ccccc3)CC2)CC1 | inactive: 2.4% |
| CCC(=O)N1CCc2cc(Br)cc(S(=O)(=O)N3CCN(c4ccc(C)cc4)C(C)C3)c21 (centres undefined) | inactive: -8% |
| Cc1ccccc1-c1noc(-c2cccnc2NCc2ccco2)n1 | inactive: -0.988% |
| CCOC(=O)c1c(C)[nH]c(C)c1S(=O)(=O)N1CCC(C(=O)N2CCN(c3cccc(Cl)c3)CC2)CC1 | inactive: 36.4% |
| COc1ccc(N2Cc3cccc(C(=O)Nc4cc(C)cc(C)c4)c3C2=O)cc1 | inactive: -5.61% |
| CSC1=NC2(CCN(C(=O)NC3CCCCC3)CC2)N=C1c1ccc(C)cc1 | inactive: 1.37% |
| O=C(C1COc2ccccc2O1)N1CCN(c2nc3ccc(F)cc3s2)CC1 (centres undefined) | inactive: -15.2% |
| Cc1noc(-c2ccc(-c3noc(-c4cccc(F)c4)n3)cc2)n1 | inactive: 5.48% |
| NC(=O)C1CCN(C(=O)c2cccc(NC(=O)c3nsc4ccccc34)c2)CC1 | inactive: 1.98% |
| Cc1cc(F)ccc1NC(=O)CCS(=O)(=O)c1ccc2c(c1)CC(C)N2C(=O)C1CC1 (centres undefined) | inactive: 9.18% |
| CCOc1ccc(CNC(=O)CSc2cc(=O)n(CC)c3ccccc23)cc1 | inactive: 46.7% |
| Nc1c(C(=O)Nc2ccc(OC(F)(F)F)cc2)nnn1Cc1ccccc1 | inactive: -4.31% |
| CCN(CC)S(=O)(=O)c1nnc(NC(=O)COc2ccccc2F)s1 | inactive: -9.29% |

| SMILES | activation |
| --- | --- |
| Cn1c(=O)c2c(nc(SCC(=O)Nc3ccccc3)n2Cc2ccccc2F)n(C)c1=O | inactive: 11.9% |
| Cc1ccc(C#N)c(=O)n1CC(=O)Nc1ccccc1C(F)(F)F | inactive: -6.6% |
| O=C(C1COc2ccccc2O1)N(Cc1cccnc1)c1nc2ccc(Cl)cc2s1 (centres undefined) | inactive: -15.5% |
| CCc1cccc(C)c1Nc1c(-c2ccccc2)nc2sccn12 | inactive: -15.2% |
| Fc1ccc(CNc2ncnc3onc(-c4ccc(F)cc4)c23)cc1 | inactive: 35.1% |
| CCc1c(CN2CCN(c3cccc(C)c3C)CC2)csc1C | inactive: 17.9% |
| O=C(NC1CCCCC1)c1ccc(Cn2c(SCc3ccc(F)cc3)nc3cccnc32)cc1 | inactive: -11.7% |
| Cc1ccc2c(c1)-c1onc(C(=O)N3CCN(c4ccc(Cl)cc4)CC3)c1CO2 | inactive: 8.71% |
| CCOC(=O)N1CCN(Cc2nc3cc(NC(=O)c4ccccc4[N+](=O)[O-])ccc3n2C(C)C)CC1 | inactive: 2.92% |
| Cc1ccc(-n2c3nc(=O)[nH]c(=O)c-3cc3c(C)nn(-c4ccccc4)c32)cc1Cl | inactive: 5.5% |
| CCCNC(=O)C1CCC(Cn2c(=O)c3sccc3n(Cc3ccccc3F)c2=O)CC1 (centres undefined) | inactive: -1.14% |
| COCCCn1c(=N)c(C(=O)NCc2ccco2)cc2c(=O)n3ccccc3nc21 | inactive: -4.26% |
| Cc1cccc(C)c1NC(=O)NCCc1c[nH]c2ccccc12 | inactive: -1.19% |
| COc1ccccc1CNC(=O)CCn1nc(C)c2c(C)n(-c3ccccc3)nc2c1=O | inactive: -6.2% |
| CNCCCN1c2ccccc2CCc2ccccc21 | inactive: 2.23% and inactive: -0.376% |
| Cc1oc(-c2ccc(Cl)cc2)nc1CS(=O)CC(=O)N1CCN(c2cccc(C(F)(F)F)c2)CC1 (centres undefined) | inactive: -0.133% |
| COc1cccc(N2CCN(c3ncnc4c3nc3n4CCCCC3)CC2)c1 | inactive: 9.46% |
| CCCCN(CC)C(=O)CSc1nc2n[nH]c(C)c2c(=N)n1-c1cccc(OC)c1 | inactive: -19.6% |
| Brc1ccc(-c2nc3ccccn3c2Nc2ccc3c(c2)OCCO3)o1 | inactive: -16.4% |
| O=S(=O)(c1ccccc1)c1nnn2c1nc(NCc1ccc(F)cc1)c1sccc12 | inactive: 5.57% |
| Nc1ccc(/C=C/c2ccc(N)cc2S(=O)(=O)O)c(S(=O)(=O)O)c1 | inactive: -6.59% |

| SMILES | activation |
| --- | --- |
| CCC1CN(C(=O)Nc2cc(C)ccc2OC)c2cc(Cl)ccc2O1 (centres undefined) | inactive: -36.5% |
| CCCCC(=O)OCc1cc(=O)n2nc(C3CCCCC3)sc2n1 | inactive: -2.65% |
| Cc1cc(C)n(-c2nc3ccccc3nc2Nc2ccc(Cl)c(Cl)c2)n1 | inactive: -1.47% |
| COc1ccccc1NCc1cccn1-c1nnc(N2CCCCCC2)s1 | inactive: -8.74% |
| COC(=O)c1ccc(NC(=O)CC2Nc3cc(C)c(C)cc3NC2=O)cc1 (centres undefined) | inactive: -47.2% |
| Cc1cccc(OCC(=O)Nc2c(C(=O)N3CCN(c4ccccc4F)CC3)oc3ccccc23)c1 | inactive: -19.1% |
| CCOc1ccc(S(=O)(=O)Nc2ccc3oc(C)c(C(=O)OC(C)C)c3c2)cc1 | active: 87% |
| Cc1cc(C)cc(OCC(=O)NC(Cc2c[nH]c3ccccc23)C(=O)O)c1 (centres undefined) | inactive: -0.167% |
| Cc1ccc2onc(CC(=O)Nc3cccc(C(F)(F)F)c3)c2c1 | inactive: 13.9% |
| COc1ccc(C2c3c(n(C)c4ccccc34)C(=O)N2CC(=O)Nc2cc(Cl)ccc2C)cc1 (centres undefined) | inactive: -15.9% |
| Cc1ccc(NC(=O)N2CCc3cc(S(=O)(=O)N4CCC(C)CC4)ccc32)cc1F | inactive: -11.4% |
| CCOC(=O)c1ccc(N2C(=O)c3[nH]nc(-c4ccc(OC)cc4)c3C2c2ccccc2Cl)cc1 (centres undefined) | inactive: -5.64% |
| CCOC(=O)N1CCN(C(=O)CN(c2cccc(Cl)c2)S(=O)(=O)c2ccccc2)CC1 | inactive: -7.34% |
| CCCc1cc(=O)n2[nH]c(NC(=O)c3ccccc3Cl)nc2n1 | inactive: 8.63% |
| CCCN(C(=O)c1cc2c(=O)oc3ccccc3c2s1)c1cccc(Cl)c1 | inactive: 14.3% |
| O=C(Nc1ccccc1)N(Cc1cccs1)c1ccc(F)cc1 | inactive: -12.8% |
| CCOC(=O)c1sc(N2C(=O)c3oc4ccc(C)cc4c(=O)c3C2c2ccccc2F)nc1C (centres undefined) | inactive: 6.68% |
| COc1cccc(CNC(=O)c2cc(S(=O)(=O)N3CCCCCC3)cn2C)c1 | inactive: 31.7% |
| C[n+]1ccccc1/C=N/O | inactive: 6.12% |
| CCOC(=O)CSc1nc2cc3c(cc2c(=O)n1CCCC(=O)NCCc1ccc(OC)c(OC)c1)OCO3 | inactive: -13.3% |
| CCOC(=O)c1c(NC(=O)CSc2cn(CCNC(=O)c3ccc(OC)c(OC)c3)c3ccccc23)sc2c1CCCC2 | inactive: 3.13% |

| SMILES | activation |
| --- | --- |
| Cc1ccc(CNC(=O)CCCn2nc(C)c3c(C)n(-c4ccccc4)nc3c2=O)cc1 | inactive: -7.64% |
| CCc1cccc(NS(=O)(=O)c2ccc3c(c2)n(C)c(=O)c(=O)n3C)c1 | inactive: -5.33% |
| CCOCCn1ccc2c(OCC(=O)NCc3ccc(C)cc3)cccc2c1=O | inactive: -7.09% |
| Cc1ccccc1NC(=O)CSc1nnc(COc2ccc(Cl)cc2)o1 | inactive: 1.5% |
| COc1ccc(-c2cn3nc(N4CCCC(C(=O)Nc5cccc(Cl)c5C)C4)sc3n2)cc1 (centres undefined) | inactive: -10.3% |
| CCCSc1ncc(Cl)c(C(=O)NCc2ccc(OC)cc2)n1 | inactive: -16.8% |
| CN(C)CCNC(=O)c1ccc2c(c1)N(Cc1ccccc1)C(=O)c1ccccc1S2(=O)=O | inactive: -23% |
| COCCCNC(=O)N1[C@H](c2cccs2)[C@@H](C)C(=O)[C@@H](C)[C@@H]1c1cccs1 | inactive: -20.1% |
| O=C1c2[nH]nc(-c3ccccc3O)c2C(c2cccc(O)c2)N1Cc1ccncc1 (centres undefined) | inactive: -14.6% |
| O=C(Cn1cc(C(=O)c2ccncc2)c(=O)c2cc(F)ccc21)Nc1ccc(Cl)cc1 | inactive: -29.1% |
| Cc1ccc(O)c(NC(=O)c2noc3c2CCCC3)c1 | inactive: 27% |
| COc1ccccc1CNC(=O)CCn1c(=O)c2ccccc2n(CC(=O)Nc2ccc(Br)cc2F)c1=O | inactive: -8.63% |
| COc1cccc(-n2cc(C(=O)OCc3ccc(F)c(F)c3)c3ccccc3c2=O)c1 | inactive: -9.3% |
| Cc1ccc2c(c1)N(S(=O)(=O)c1cc(-c3onc(C)c3C)ccc1C)CCO2 | inactive: 12.7% |
| O=C(CN1C(=O)COc2ccc(S(=O)(=O)N3CCCC3)cc21)N1CCN(c2ccc(Cl)cc2)CC1 | inactive: -6.11% |
| CCCCNc1nc2c(c(=O)n(C)c(=O)n2C)n1CC(O)COc1ccccc1C (centres undefined) | active: 66.6% |
| Cc1ccc2nc(-c3cccc(NC(=O)c4ccc(Br)o4)c3)oc2c1 | inactive: 16.3% |
| CCOc1ccccc1-n1nnc(-c2nc(-c3ccccc3C)no2)c1C | inactive: -1.29% |
| COc1ccc(C(=O)Nc2nnc(S(=O)(=O)N3CCCc4ccccc43)s2)cc1 | inactive: 26.3% |
| Cc1ccc(C(=O)Nc2nc3n(n2)C(c2ccc(F)cc2)C=C(c2ccccc2)N3)cc1 (centres undefined) | inactive: 6.3% |
| C=C1C(=O)O[C@@H]2[C@H]3O[C@]3(C)CCC=C(C)CC[C@@H]12 | inactive: -19% |
